About 540 (0.36%) of roughly 150,000 compounds showed an effect of 50% or more. Some of the results follow.
Test system: Plasmodium falciparum
Assay: Primary screen in NF54 nanoGlo assay, in single point, at 2uM, 72h; a lower Z score goes with more inhibition
Format: functional, Erythrocyte
Details: timepoint 72 hour

| SMILES | % Inhibition [%] | Z score |
| --- | --- | --- |
| CN(C)C(=O)N1CCC(CNC(=O)C(C)(C)C)CC1 | 3 | -0.31 |
| O=C(NCC#CCN1CCOCC1)NCc1ccccc1 | -16 | 1.82 |
| Cc1ccc(S(=O)(=O)Nc2ccc(Oc3ccc4nnnn4n3)cc2)cc1 | -8 | 1.1 |
| Cn1c(CCN2CCOc3ccccc3[C@@H]2CO)nc2ccccc21 | -2 | 0.26 |
| O=C(CCn1cncn1)N1CC[C@@](O)(c2ccccc2)C1 | -17 | 1.49 |
| CC(C)c1noc([C@H](C)N(C)CC2CCCCC2)n1 | 4 | -0.43 |
| Cc1cc(N2CCN(C(=O)c3cccs3)CC2)nc(N2CCOCC2)n1 | -9 | 1.24 |
| Cc1nnc(COc2ccc(CCO)cc2-n2nc3ccccc3n2)s1 | -10 | 1.85 |
| CCOC(=O)CN(C(=O)Cc1cnn(C)c1)C1CCCCC1 | -6 | 0.57 |
| CC(C)(CN1C[C@H](C(=O)O)[C@@H](c2cccnc2)C1)N1CCCCC1 | -13 | 2.45 |
| CN(CCCCN1CCOCC1)C(=O)c1cn(CC2CCCCC2)nn1 | -13 | 2.58 |
| C[C@@H](COc1ccc(F)cc1F)NC(=O)NC(C(N)=O)C(N)=O | 11 | -1.71 |
| COc1ccc(CNC(=O)c2cc3c([nH]c2=O)CCCC3=O)cc1 | -3 | 0.37 |
| CCC(C)N1C(=O)CC(C(=O)O)C1c1cnn(-c2ccccc2)c1 (centres undefined) | -6 | 1.24 |
| Cc1ccc(NC(=O)N2CCC(N3CCC(CC4CC4)(C(N)=O)CC3)CC2)c(C)c1 | 3 | -0.4 |
| Cc1cc(CN(C)C(=O)c2sc(-c3ccco3)nc2-c2ccccc2)no1 | -3 | 0.35 |
| CCc1ccc2c(c1)N=C(c1ccccc1)N=C(c1cccs1)N2 | -10 | 1.15 |
| COc1cc(NC(=O)c2[nH]c3ccccc3c2Br)ccc1N1CCOC1=O | 17 | -2 |
| C[C@H]1CS(=O)(=O)C[C@H]1NC(=O)Nc1ccc2ccoc2c1 | 35 | -5.09 |
| Cc1cccc(NC(=O)c2cn3c4c(cccc4c2=O)CCC3)c1 | -9 | 1.41 |
| Cc1cc(N2CCC(C(=O)Nc3ncccn3)CC2)c2ccccc2n1 | -4 | 0.53 |

| SMILES | % Inhibition [%] | Z score |
| --- | --- | --- |
| COc1ccc(S(=O)(=O)N2[C@@H]3CC[C@H]2CC(NC(=O)c2ccncc2)C3)cc1 (some centres undefined) | -5 | 0.94 |
| CCc1nnc(-c2cccn2CC(=O)NCc2cccc(OC)c2)o1 | -8 | 1.27 |
| O=C(NCc1ccc(F)cc1)C(=O)N[C@H]1CCCc2occc21 | 8 | -0.94 |
| Cc1cnn(-c2ccc(C(=O)Nc3cccnc3)o2)c1 | -9 | 1.33 |
| CC(C)c1ccc(NC(=O)N2CCS(=O)(=O)CC[C@@H]2C)cc1F | -6 | 0.66 |
| CCn1nnc(C)c1C(=O)N1CCC(F)(c2cccc(OC)c2)CC1 | -12 | 1.93 |
| COc1ccc(-c2nn(C)c3ncnc(N)c23)c(F)c1 | -8 | 1.1 |
| Oc1ccc([C@@H](Cc2nc(-c3ccncc3)no2)C2CC2)cc1 | 14 | -1.73 |
| CC(CN1CCN(c2ccccc2)CC1)NC(=O)C1CC2CCC1O2 (centres undefined) | 5 | -0.99 |
| CCCS(=O)(=O)Nc1ccnn1Cc1sccc1C | 2 | -0.29 |
| CC(=O)c1ccc(NC(=O)Cn2c(=O)c(N3CCCCC3)nc3ccccc32)cc1 | -14 | 1.34 |
| CCCC(=O)N1CCC2(CC1)NCCc1c2[nH]c2ccccc12 | -7 | 0.89 |
| Cc1nc(N)sc1Cc1nc(-c2cccc3c2ccn3C)nn1CCO | -2 | 0.3 |
| COc1cc([C@@H]2OC(c3cccc(C)c3O)=NN2C(C)=O)ccc1OCc1ccccc1 | -1 | 0.12 |
| CN(C)c1cnn(CC(=O)NC2CCCCCCC2)c(=O)c1 | -3 | 0.69 |
| Cc1noc2nc(C3CC3)cc(C(=O)N3CCN(C)C[C@@H]3C)c12 | -2 | 0.27 |
| CC1(C)O[C@@H]2C[C@@](OCc3cccc(Cl)c3)(C(=O)NCCN3CCOCC3)CC(OCc3ccccc3)[C@@H]2O1 (some centres undefined) | -10 | 1.77 |
| CCCN(CC1CC1)C(=O)CCc1ccc(-c2ccc(C)cc2C)n1-c1ccc(CC#N)cc1 | -14 | 1.84 |
| O=C(CCc1nc(C2CCCC2)no1)N1CCOc2cccc(F)c21 | 1 | -0.24 |
| Cc1ccc(C2CCCC2OC(=O)Cn2ccc(=O)n(C)c2=O)cc1 (centres undefined) | 0 | 0.07 |
| O=C(C1CC=CC1)N1CCc2ccccc2C1 | 23 | -2.59 |

Reference: ChEMBL document CHEMBL4888484, “Replenishing the malaria drug discovery pipeline: Screening and hit evaluation of the MMV Hit Generation Library 1 (HGL1) against asexual blood stage Plasmodium falciparum ,using a nano luciferase reporter read-out” (2022)
